Assay results as given in the CheMixHub viscosity set.
The source gives many values for each of these; only a part stands here.

Assay: xn = mol fraction of the nth substance listed

NCCN + O
viscosity [mPa·s]
Details | 303.15 K | 308.15 K | 313.15 K | 318.15 K | 323.15 K
101 kPa, x1 = 0.05 | 1.368 | 1.208 | 1.075 | 0.964 | 0.87
101 kPa, x1 = 0.0999 | 2.291 | 1.971 | 1.717 | 1.515 | 1.334
101 kPa, x1 = 0.103 | 2.417 | 2.078 | 1.809 | 1.586 | 1.402
101 kPa, x1 = 0.15 | 3.635 | 3.059 | 2.602 | 2.243 | 1.95
101 kPa, x1 = 0.1998 | 5.292 | 4.347 | 3.618 | 3.048 | 2.602
101 kPa, x1 = 0.2041 | 5.509 | 4.513 | 3.749 | 3.158 | 2.679
101 kPa, x1 = 0.2483 | 6.622 | 5.378 | 4.43 | 3.714 | 3.14
101 kPa, x1 = 0.2488 | 6.797 | 5.484 | 4.489 | 3.733 | 3.144
101 kPa, x1 = 0.2749 | 7.372 | 5.92 | 4.825 | 3.993 | 3.347
101 kPa, x1 = 0.2962 | 7.573 | 6.089 | 4.934 | 4.081 | 3.408
101 kPa, x1 = 0.2997 | 7.678 | 6.133 | 4.997 | 4.114 | 3.439
101 kPa, x1 = 0.3246 | 7.767 | 6.213 | 5.042 | 4.154 | 3.476
101 kPa, x1 = 0.3488 | 7.67 | 6.133 | 4.987 | 4.117 | 3.44
101 kPa, x1 = 0.3518 | 7.621 | 6.095 | 4.965 | 4.098 | 3.42
101 kPa, x1 = 0.3739 | 7.384 | 5.918 | 4.826 | 3.991 | 3.346
101 kPa, x1 = 0.3944 | 7.02 | 5.643 | 4.621 | 3.84 | 3.234
101 kPa, x1 = 0.4036 | 7.393 | 5.963 | 4.817 | 3.989 | 3.336
101 kPa, x1 = 0.4508 | 6.891 | 5.428 | 4.441 | 3.704 | 3.14
101 kPa, x1 = 0.4542 | 5.965 | 4.871 | 4.032 | 3.385 | 2.875
101 kPa, x1 = 0.5066 | 5.713 | 4.686 | 3.916 | 3.276 | 2.787
101 kPa, x1 = 0.5996 | 4.145 | 3.497 | 2.959 | 2.542 | 2.2
101 kPa, x1 = 0.6989 | 2.91 | 2.491 | 2.172 | 1.902 | 1.68
101 kPa, x1 = 0.7936 | 2.148 | 1.886 | 1.664 | 1.489 | 1.335
101 kPa, x1 = 0.8925 | 1.622 | 1.444 | 1.307 | 1.189 | 1.081
101.33 kPa, x1 = 0.05 | – | – | 1.075 | 0.964 | 0.87
101.33 kPa, x1 = 0.0999 | – | – | 1.717 | 1.515 | 1.334
101.33 kPa, x1 = 0.15 | – | – | 2.602 | 2.243 | 1.95
101.33 kPa, x1 = 0.1998 | – | – | 3.618 | 3.048 | 2.602
101.33 kPa, x1 = 0.2488 | – | – | 4.489 | 3.733 | 3.144
101.33 kPa, x1 = 0.2749 | – | – | 4.825 | 3.993 | 3.347
101.33 kPa, x1 = 0.2997 | – | – | 4.997 | 4.114 | 3.439
101.33 kPa, x1 = 0.3246 | – | – | 5.042 | 4.154 | 3.476
101.33 kPa, x1 = 0.3488 | – | 6.133 | 4.987 | 4.117 | 3.44
101.33 kPa, x1 = 0.3739 | – | 5.918 | 4.826 | 3.991 | 3.346
101.33 kPa, x1 = 0.3944 | – | 5.643 | 4.621 | 3.84 | 3.234
101.33 kPa, x1 = 0.4542 | – | 4.871 | 4.032 | 3.385 | 2.875
